Target: PP1α (Homo sapiens, UniProt P62136)
Excerpt: Analysis of the effect of 1H4 on the binding of the Tat RVxF sequence to PP1 using hybrid PP1 substrates containing a substrate phosphopeptide linked to RVxF-containing sequences derived from Tat or NIPP1 was undertaken. As the substrate phosphopeptide, a retinoblastoma protein-derived HIPR(pS)PYKFPSSPLR (SEQ ID NO: 1) peptide (pRb) was used that is efficiently dephosphorylated by PP1 but not by the enzymatically-related PP2A (Ammosova, T., et al., Protein Phosphatase-1 Activates CDK9 by Dephosphorylating Ser175. PLOS One, 2011. 6(4): p. e18985). The pRb peptide was linked to an extended RVxF-containing sequence derived from Tat (KKCCFHCQVCFITK, SEQ ID NO: 2) (pRb-Tat peptide) or the central domain of NIPP1 (KRKRKNSRVTFSED, SEQ ID NO: 3). Recombinant PP1α was assayed with pRb-Tat (WT or QACA mutant, 120 μM) in the absence or presence of 1H4 as indicated. The reactions were stopped at indicated time points and the phosphate release was quantified by malachite green assay. Initial velocity was calculated by linear regression in Prism. Recombinant PP1α was assayed with pRb-cdNIPP1 in the absence or presence of 1H4 as indicated. Mutant pRb cdNIPP1 pA-RATA was used as negative control. The reactions were stopped at indicated time points and the phosphate release was quantified by malachite green assay. Initial velocity was calculated by linear regression in Prism. The pRb-Tat peptide was efficiently dephosphorylated by PP1 in vitro (FIG. 4A, V0=0.31 μM·min^−1). […] Addition of 1H4 at 3-fold molar excess (480 μM) over pRb-Tat (160 μM) inhibited pRb-Tat dephosphorylation and reduced the rate of dephosphorylation (FIG. 4A, V0=0.19 μM·min^−1) to the rate of pRb-Tat QACA dephosphorylation (FIG. 4A, V0=0.17 μM·min^−1). […] To further investigate the effect of 1H4 on the dephosphorylation of the pRb-Tat peptide, the initial velocity versus pRb-Tat peptide substrate concentration plots was analyzed. […] The amount of the released phosphate was quantified with malachite green. […]

PP1α, sequence (P62136 whole entry, the tested form may be a part): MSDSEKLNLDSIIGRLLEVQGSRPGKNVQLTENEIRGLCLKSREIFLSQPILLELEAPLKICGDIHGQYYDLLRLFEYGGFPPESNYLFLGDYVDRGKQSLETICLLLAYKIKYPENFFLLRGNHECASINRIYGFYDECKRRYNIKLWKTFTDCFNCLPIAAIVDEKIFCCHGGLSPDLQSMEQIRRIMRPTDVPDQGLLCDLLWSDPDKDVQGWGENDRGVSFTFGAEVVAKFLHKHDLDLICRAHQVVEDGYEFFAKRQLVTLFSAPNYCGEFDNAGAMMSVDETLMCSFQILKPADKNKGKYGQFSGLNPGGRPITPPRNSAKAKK

COCCNC(=O)OC(=O)c1c2c(nc3ccccc13)/C(=C\c1ccc(O)cc1)CCC2 [1H4]
effect on pRb-Tat dephosphorylation (Km, Vmax): increasing Km but not Vmax | initial velocity V0 of pRb-Tat dephosphorylation by PP1α: 0.19 μM·min^−1 | initial velocity V0 of pRb-cdNIPP1 dephosphorylation by PP1α: 0.37 μM·min^−1
